What all share (assay): glycan array binding signal (z-score within array); higher = stronger binding
Common to all, as to conditions: glycan notation: IUPAC condensed, linker removed

In experiment [1] the target is GlcNAc(a1-4)Gal(b1-3)GlcNAc. An outline of the steps: (§1)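 Columns mapping to the same glycan were averaged after glycan names were converted to IUPAC-condensed notation. The data come from 3228 arrays in the Consortium for Functional Glycomics database, limited to those with an available protein sequence. Binding is reported as a within-array Z-score averaged across arrays of one protein sequence and across linkers.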

The target in experiment [2] is GlcNAc(a1-4)Gal(b1-4)GalNAc. An outline of the steps:
as §1

Experiment [3] deals with GlcNAc(a1-4)Gal(b1-4)GlcNAc. Put shortly: as §1
In experiment [4] the target is GlcNAc(a1-4)Gal(b1-4)GlcNAc(b1-3)Gal(b1-4)Glc. Put shortly: as §1
The target in experiment [5] is GlcNAc(a1-4)Gal(b1-4)GlcNAc(b1-3)Gal(b1-4)GlcNAc. Put shortly:
as §1

In experiment [6] the target is GlcNAc(a1-4)Gal(b1-4)GlcNAc(b1-3)Gal(b1-4)GlcNAc(b1-3)Gal(b1-4)GlcNAc. Put shortly:
as §1

Experiment [7] deals with GlcNAc(a1-4)Gal(b1-4)GlcNAc(b1-3)Gal(b1-4)[Fuc(a1-3)]GlcNAc(b1-3)Gal(b1-4)[Fuc(a1-3)]GlcNAc. Put shortly:
as §1

Experiment [8] has as its target GlcNAc(a1-6)Gal(b1-4)GlcNAc. An outline of the steps: as §1
Experiment [9] has as its target GlcNAc(b1-2)Gal(b1-3)GalNAc. Put shortly: as §1
The target in experiment [10] is GlcNAc(b1-2)Man(a1-3)[GlcNAc(b1-2)Man(a1-6)]Man(b1-4)GlcNAc(b1-4)GlcNAc. Put shortly: as §1
The target in experiment [11] is GlcNAc(b1-2)Man(a1-3)[GlcNAc(b1-2)Man(a1-6)]Man(b1-4)GlcNAc(b1-4)[Fuc(a1-6)]GlcNAc. Put shortly:
as §1

Experiment [12] concerns the target GlcNAc(b1-2)Man(a1-3)[GlcNAc(b1-4)][GlcNAc(b1-2)Man(a1-6)]Man(b1-4)GlcNAc(b1-4)GlcNAc. An outline of the steps:
as §1

Experiment [13] deals with GlcNAc(b1-2)Man(a1-3)[GlcNAc(b1-4)][GlcNAc(b1-2)Man(a1-6)]Man(b1-4)GlcNAc(b1-4)[Fuc(a1-6)]GlcNAc. Put shortly:
as §1

For experiment [14], the target named is GlcNAc(b1-2)[GlcNAc(b1-4)]Man(a1-3)[GlcNAc(b1-2)Man(a1-6)]Man(b1-4)GlcNAc(b1-4)GlcNAc. An outline of the steps:
as §1

For experiment [15], the target named is GlcNAc(b1-2)[GlcNAc(b1-4)]Man(a1-3)[GlcNAc(b1-4)][GlcNAc(b1-2)Man(a1-6)]Man(b1-4)GlcNAc(b1-4)GlcNAc. An outline of the steps:
as §1

Experiment [16] deals with GlcNAc(b1-2)[GlcNAc(b1-4)]Man(a1-3)[GlcNAc(b1-4)][GlcNAc(b1-2)[GlcNAc(b1-6)]Man(a1-6)]Man(b1-4)GlcNAc(b1-4)GlcNAc. An outline of the steps:
as §1

Experiment [17] deals with GlcNAc(b1-2)[GlcNAc(b1-4)]Man(a1-3)[GlcNAc(b1-4)][GlcNAc(b1-2)[GlcNAc(b1-6)]Man(a1-6)]Man(b1-4)GlcNAc(b1-4)[Fuc(a1-6)]GlcNAc. An outline of the steps: as §1
For experiment [18], the target named is GlcNAc(b1-2)[GlcNAc(b1-6)]Man(a1-6)[GlcNAc(b1-2)Man(a1-3)]Man(b1-4)GlcNAc(b1-4)GlcNAc. Put shortly:
as §1

Experiment [19] has as its target GlcNAc(b1-2)[GlcNAc(b1-6)]Man(a1-6)[GlcNAc(b1-2)Man(a1-3)]Man(b1-4)GlcNAc(b1-4)[Fuc(a1-6)]GlcNAc. Put shortly: as §1

The other results are listed elsewhere or left out.

B1: PX14343H-pdi-506-26-506 (Parabacteroides distasonis) (protein)
chain: QPTGTMTTDSKLTSKESALALTNSAYLKNTVFNKMTPGWGCNTILLLEYMTGKATSENSQSNYKDFQDLLVSDRSLYIEDWWQDCYAGIANCNLALQKLGEFENLDASLVNGYMAEVKFMRALYYFYLVRIFGDVPKITTVQSELGELQVSRAPVKEIYDEIIIPDLLEAEQSDLAFSDHTGRVSMGAVKALLADVYLTYAGYPLQGGKSYYAESAKRSLEVIKSNEYTLFTDYESLRLPSQNNKGEFIYQVQFSLNKRHNESVRIFLPSRSGISAYDLEYGSLIPTKEFVESFEKGDKRTEEKQYFFTNYKGHPSKFSPGAAELEFMDLNGYYIYKFFDQVAVDNTAKSDLNWSVYRYTDVLLMYAEAQVNADGTPNQQSIDIVNQIRGRAGLAPFKQTNASAFLEEVWDQRYFDLCYENKMWFDMLRTRKIRDDKSGEYVDFIGYKTNWGKVYTETQLLFPIPLSERQANPNLTQNQGY
With B1, the “glycan array binding signal (z-score)” value was -0.529 in experiment [1]; -0.204 in experiment [2]; -0.26 in experiment [3]; -0.465 in experiment [4]; -0.247 in experiment [5]; -0.419 in experiment [6]. Also, the “glycan array binding signal (z-score)” value in experiment [7] was 0.846; in experiment [8], -0.506; in [9] it was -0.544; in [10], -0.515; in [11] it was -0.216; in experiment [12] it was -0.462. For the same molecule, the “glycan array binding signal (z-score)” value in experiment [13] was -0.414; in [14], -0.368; in [15] it was -0.297; in experiment [16], -0.527; in [17] it was -0.446; in experiment [18], -0.19. For the same molecule, in [19], the “glycan array binding signal (z-score)” value was -0.354.

For the origin of these results see the supplement of paper PMC8728848.
